# PubChem BioAssay AID602332 (National Center for Advancing Translational Sciences (NCATS), 2012)
# Several values for one entry are separate records, joined by “and”; a condition that tells them apart may be missing. Equal values may be shown once. Among all 420,000 compounds or so, about 75 (0.02%) were called active. Inconclusive results, whose numbers are uncertain, are shown with a selection of clear calls. The call rests on the fitted dose curve; in most records, active means well fitted activation curve with a large enough effect; inconclusive means small, poorly fitted or top-dose-only effect; inactive means no such curve, though single readings can be large or run the other way. A potency beside an inconclusive call is a rough fit, not a confirmed value.
# Experiment: qHTS for Inducers of the Endoplasmic Reticulum Stress Response (ERSR) in Human Glioma: qHTS; further: nearly all actives have a fitted effect of over 35% in size; on activation: % of control where 0% means no effect
# Details: U87-MG GRP78 promoter luciferase reporter, 16 h; activation: active compounds read high
# Outline: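 Stably transfected U87-MG glioma cells carrying a GRP78-based luciferase sensor; 16 h compound incubation. Luminescence end-point read 10 min after Bright-Glo addition at room temperature.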
# Potency means the concentration at half of the fitted maximal effect; tags describe the fitted curve by direction and shape.
Compound,Potency,activation
Cc1ccc(Cn2nnc3c(=O)n(CC(=O)OCc4ccccc4)cnc32)cc1,"inconclusive: 44.7 µM [activator, partial curve, poor fit]",
CCOC(=O)c1cc2oc(C(c3nnnn3C3CCCCC3)N3CCOCC3)cc2[nH]1 (configuration not stated),,inactive: -5.43%
OC(COc1ccc2ccccc2c1)CN1CCOCC1 (configuration not stated),"inconclusive: 10 µM [activator, partial curve, poor fit]",
COc1ccc(NC(=O)c2c(NCc3ccc(C)o3)sc3c2CCC(C)C3)c(OC)c1 (configuration not stated),,inactive: -3.38%
COc1ccc(C(=O)ON=C2C=C(C)C(=O)C(C)=C2)cc1,,inactive: -2.97%
COC(=O)c1sccc1NC(=S)N1CCC(C(N)=O)CC1,,inactive: -2.34%
Oc1ccc(Cl)cc1C1C=C(c2ccc3c(c2)OCO3)NC(c2ccc(F)c(Br)c2)N1 (configuration not stated),"inconclusive: 28.2 µM [activator, single point]",
Cc1cc(N2CCN(c3ccc([N+](=O)[O-])c4cccnc34)CC2)c2ccccc2n1,,inactive: -2.29%
O=C(Nc1ccc(NC(=O)C2CCCCC2)nc1)c1cccs1,"inconclusive: 15.8 µM [activator, single point]",
O=C(/C=C/c1ccco1)Nc1cccc(-c2nc3ccccc3[nH]2)c1,"inconclusive: 10 µM [activator, single point]",
CCC(C(=O)OCC(=O)Nc1ccc(Cl)c(S(=O)(=O)N(C)C)c1)c1ccccc1 (configuration not stated),,inactive: -6.84%
CCn1c(CCc2ccccc2)nc2ccccc21,"inconclusive: 2.24 µM [activator, partial curve, poor fit]",
Cc1cccc(C)c1Nc1sc(C(=O)c2ccccc2)c(N)c1C(=O)Nc1ccc(F)cc1,"inconclusive: 17.8 µM [activator, single point]",
COc1ccccc1N=CC=C1OC(C)(C)C(C)(C)O1,"inconclusive: 50.1 µM [activator, single point]",
O=C(NCCCN1CCN(c2ccc(F)cc2)CC1)NC12CC3CC(CC(C3)C1)C2,,inactive: -5.22%
CCC1CC=CC2C1C(=O)N(Cc1ccccc1)C2c1cc(C)ccc1F (configuration not stated),"inconclusive: 50.1 µM [activator, single point]",
CCC1CN(Cc2c(C)nc3sccn23)Cc2cc(OC)ccc2O1 (configuration not stated),,inactive: -4.06%
CCOc1cc(N2CCOCC2)c(OCC)cc1NC(=O)Cn1cnc2c(=O)n(C)c(=O)n(C)c21,"inconclusive: 20 µM [activator, single point]",
Cc1ccc(Cl)cc1NC(=O)CSC(N)=O,"inconclusive: 63.1 µM [activator, single point]",
Cc1c(C(=O)N2CCCC(c3ccccc3)C2)sc2ncnc(NCCc3ccccn3)c12 (configuration not stated),,inactive: 1.09%
CC(C)COc1ccc(C(=O)CCN2CCCCC2)cc1,,inactive: 6.43%
COc1ccc2cc(-c3ccon3)ccc2c1,"inconclusive: 11.2 µM [activator, partial curve, poor fit]",
COc1ccc(NC(=O)CN(c2ccc(C)cc2)S(=O)(=O)c2cccc3nonc23)cc1OC,"inconclusive: 28.2 µM [activator, single point]",

Compound,Potency,activation
CC(=O)Nc1ccc(S(=O)(=O)NC(CC(=O)NCCc2ccccc2)C(C)C)cc1 (configuration not stated),"inconclusive: 15.8 µM [activator, single point]",
O=C(Nc1cccc(F)c1)c1cc(S(=O)(=O)N2CCOCC2)ccc1N1CCCC1,"inconclusive: 63.1 µM [activator, single point]",
Cc1cc(=O)c2c(o1)C(=O)c1occc1C2=O,,inactive: -12.3%
CCNc1nc(C#N)nc(Nc2ccccc2)n1,,inactive: -4.25%
O=C(Nc1ccc(S(=O)(=O)N2CCOCC2)cc1)c1ccc(Cl)c([N+](=O)[O-])c1,"inconclusive: 44.7 µM [activator, partial curve, poor fit]",
Cc1cccc(C)c1NC(=O)CSc1nc(C)c(CC(=O)c2ccc(Br)cc2)c(C)c1C#N,,inactive: -0.831%
CCN(CC)c1ccc(/C=N/N2CCN(Cc3ccccc3Cl)CC2)c(O)c1,,inactive: 8.68%
CCCc1ccc(OCc2ccc(C(=O)N/N=C/c3cccc([N+](=O)[O-])c3)o2)c(OC)c1,"inconclusive: 39.8 µM [activator, partial curve]",
Cc1ccc(NC(=O)COC(=O)CNC(=O)C2CCCCC2)cc1S(=O)(=O)N(C)C,,inactive: -2.1%
Cc1ccc(OCC(=O)Nc2nnc(C3CCCO3)s2)c(Br)c1 (configuration not stated),"inconclusive: 50.1 µM [activator, single point]",
O=C1/C(=C\c2ccc(O)c(O)c2)Oc2cc(O)ccc21,"inconclusive: 28.2 µM [activator, partial curve, poor fit]",
O=C(CN1CCOCC1)N/N=C/c1ccc(-c2cccc(Cl)c2Cl)o1,"inconclusive: 28.2 µM [activator, single point]",
CC(=O)OCC1OC(C#Cc2ccc(F)cc2F)C=CC1OC(C)=O (configuration not stated),"inconclusive: 10 µM [activator, partial curve, poor fit]",
CCCN(CC1CC1)c1nc(C)nc(Nc2c(Cl)cc(Cl)cc2Cl)c1Cl,,inactive: -3.3% and inactive: -3.4% and inactive: -6.06%
O=C(NCCc1nnc2n1CCN(Cc1ccc(F)c(F)c1)CC2)c1ccoc1,,inactive: -4.26%
COCc1c(C(=O)OCC(=O)NCCN2C(=O)CSC2=O)oc2ccccc12,,inactive: -1.68%
CC(=O)Nc1cc(-c2ccc(C(=O)NC3CC3)cc2)cn2c(-c3cccc(C(C)=O)c3)cnc12,"inconclusive: 50.1 µM [activator, single point]",
CCCC(C)NS(=O)(=O)c1ccc(OC)c(C)c1 (configuration not stated),"inconclusive: 15.8 µM [activator, partial curve, poor fit]",
COc1ccccc1Cc1c(-c2ccco2)nc2ccc(Br)cn12,"inconclusive: 15.8 µM [activator, single point]",
CCN1CCCC1CNS(=O)(=O)c1c(C)cc(C)cc1C (configuration not stated),"inconclusive: 31.6 µM [activator, single point]",
COc1ccc(N2C(=O)CC(Sc3nc(C)cc(C)c3C#N)C2=O)cc1 (configuration not stated),"inconclusive: 12.6 µM [activator, single point]",
CN(C)S(=O)(=O)c1ccc(N2CCCC2)c(C(=O)Nc2nccs2)c1,"inconclusive: 12.6 µM [activator, full curve, poor fit]",
N#C[C@@H]1N(Cc2ccccc2)C(=O)[C@H]2CC3C=CC21O3 (some centres not stated),,inactive: -4.41%

Compound,Potency,activation
COc1cc(C(C2C(=O)CC(C)(C)CC2=O)C2C(=O)CC(C)(C)CC2=O)ccc1O,"inconclusive: 22.4 µM [activator, single point]",
CC(C)(C)NC(=O)CSc1ccc(C(C)(C)C)cc1,"inconclusive: 15.8 µM [activator, single point]",
O=C(COC(=O)c1ccc(O)cc1O)c1ccc(Cl)cc1,,inactive: 2%
Nc1cc2c3c(cccc3c1)C(=O)N(CCN1CCCC1)C2=O,"inconclusive: 44.7 µM [activator, single point]",
O=S1(=O)CC(O)C(NCc2ccco2)C1 (configuration not stated),,inactive: -2.01%
Cc1cccc(CC(=O)NC2CCCCCC2)c1,"inconclusive: 22.4 µM [activator, partial curve, poor fit]",
O=C(NC(Cc1ccccc1)C(=O)N1CCN(c2ccc(F)cc2)CC1)c1ccccc1 (configuration not stated),,inactive: 1.29%
CCCCCc1c2c(cc(O)c1C(=O)O)OC(=O)c1cc(C(=O)CCCC)c(OC)cc1O2,"inconclusive: 20 µM [activator, single point]",
COc1ccc(C(OCC(O)CNCCc2ccccc2)c2ccc(OC)cc2)cc1 (configuration not stated),,inactive: -4.84%
CCOC(=O)COc1ccc2c(=O)c(-c3ccc(OC)c(OC)c3)c(C(=O)OCC)oc2c1,"inconclusive: 25.1 µM [activator, single point]",
Cn1nc(-c2ccccc2F)c2cc(C(=O)N3CCN(c4ccc(F)cc4)CC3)sc21,,inactive: -1.39%
COc1cc(C(=O)Nc2ccc(S(=O)(=O)N3CCCCC3C)cc2)cc(OC)c1OC (configuration not stated),"inconclusive: 28.2 µM [activator, single point]",
CC(Sc1nc2ccc(Br)cc2[nH]1)C(=O)O (configuration not stated),,inactive: -3.73%
O=C(O)CCn1cc(/C=C/C(=O)c2ccc(Cl)cc2)c(-c2ccc(Br)cc2)n1,"inconclusive: 50.1 µM [activator, single point]",
S=C(NCCc1ccccc1)NCc1cccc(Cl)c1,"inconclusive: 3.98 µM [activator, full curve, poor fit]",
Cc1ccc(C(=O)N=c2sccn2C)cc1C,"inconclusive: 2 µM [activator, full curve, poor fit]",
Cc1ccc(-n2ncc(C(=O)Nc3ccc4c(c3)OCO4)c2C2CCN(C(=O)OC(C)(C)C)CC2)cc1,,inactive: 0.624%
Cc1nc(-c2ccccn2)sc1C(=O)O,"inconclusive: 20 µM [activator, single point]",
C[C@@H]1CC=C[C@H]2[C@H]1C(=O)N(Cc1ccccc1)[C@H]2c1ccc(-c2ccoc2)cc1F,"inconclusive: 50.1 µM [activator, single point]",
Cc1ccc(CNC(=O)CCS(=O)(=O)c2ccc3c(c2)NC(=O)C(C)S3)cc1 (configuration not stated),"inconclusive: 63.1 µM [activator, single point]",
CCCCc1nc2cc(C(=O)N3CCC(OC)CC3)ccc2o1,"inconclusive: 50.1 µM [activator, single point]",
